According to PubChem BioAssay AID1460 (National Center for Advancing Translational Sciences (NCATS), 2008):
Several values for one entry are separate records, joined by “and”; a condition that tells them apart may be missing. Identical values can stand only once. Out of some 270,000 compounds screened, about 5,800 (2.1%) were called active. Inconclusive results, whose numbers are uncertain, are shown with a selection of clear calls. The call rests on the fitted dose curve; in most records, active means well fitted inhibition curve with a large enough effect; inconclusive means small, poorly fitted or top-dose-only effect; inactive means flat fitted curve, though single readings scatter. Potencies of inconclusive entries are doubtful fits and often do not repeat.

molecular target: Microtubule-associated protein tau (Homo sapiens) (UniProt P10636); assay: qHTS for Inhibitors of Tau Fibril Formation, Thioflavin T Binding; details: recombinant tau K18 P301L, heparin-induced fibrillization, ThT fluorescence; series mostly up to 57.4 µM; activity, negative = inhibition: at the top concentration; further: nearly all actives have a fitted effect of over 55% in size
In short: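 Using a mix of unlabeled (15 uM) and Alexa 594-labeled (0.24 uM) tau K18 P301L, heparin-triggered fibrillization over 6 hr at 37 C was scored by ThT fluorescence.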
On the % scale 0 is the no-effect control and ±100 the full control effect; potency means the concentration at half of the fitted maximal effect; tags describe the fitted curve by direction and shape.

UniProt P10636, sequence (P10636 whole entry, looked up): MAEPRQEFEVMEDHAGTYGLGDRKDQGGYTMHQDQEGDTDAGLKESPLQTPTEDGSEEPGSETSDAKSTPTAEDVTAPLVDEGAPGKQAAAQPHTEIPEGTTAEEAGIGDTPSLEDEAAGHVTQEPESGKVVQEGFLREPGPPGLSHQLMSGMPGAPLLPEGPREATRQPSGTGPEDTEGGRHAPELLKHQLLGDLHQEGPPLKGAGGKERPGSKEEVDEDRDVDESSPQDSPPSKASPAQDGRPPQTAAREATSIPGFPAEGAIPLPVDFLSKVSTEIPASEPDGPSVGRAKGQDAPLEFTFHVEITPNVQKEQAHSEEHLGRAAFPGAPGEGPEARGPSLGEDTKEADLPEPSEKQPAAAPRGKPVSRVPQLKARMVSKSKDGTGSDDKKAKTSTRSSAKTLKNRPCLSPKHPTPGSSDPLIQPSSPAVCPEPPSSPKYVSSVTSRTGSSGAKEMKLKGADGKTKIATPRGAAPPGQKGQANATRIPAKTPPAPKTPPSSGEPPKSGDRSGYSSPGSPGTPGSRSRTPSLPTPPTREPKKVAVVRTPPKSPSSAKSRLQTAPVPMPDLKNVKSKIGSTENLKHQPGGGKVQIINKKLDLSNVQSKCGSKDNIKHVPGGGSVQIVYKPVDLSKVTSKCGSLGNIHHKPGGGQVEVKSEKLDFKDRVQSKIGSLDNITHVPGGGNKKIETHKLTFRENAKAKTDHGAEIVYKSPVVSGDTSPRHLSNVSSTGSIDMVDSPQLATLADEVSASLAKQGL

Compound | activity, negative = inhibition | Potency
CCOc1cc(/C=N\NC(=O)CC(=O)NCCc2ccccc2)ccc1O | inactive: -13.3% | –
CCN(CCCNC(=O)c1cc2cc3cc(OC)ccc3nc2s1)c1ccccc1 | – | inconclusive: 1.26 µM [inhibitor, partial curve]
O=C(O)c1cc(N/N=C/c2ccc(N3CCOCC3)s2)ccc1Cl | – | active: 11.2 µM
CCCCOc1ccc(-c2nc(-c3cccnc3)no2)cc1 | – | inconclusive: 7.08 µM [inhibitor, full curve]
Oc1cccc(Nc2nc(-c3ccccc3)nc3ccccc23)c1 | inactive: -10% | –
COc1ccc(C(NC(C)=O)c2cc(Cl)c3cccnc3c2O)cc1OC (configuration not stated) | inactive: -17.2% | –
Cc1c(Cl)ccc2c1NC(=O)[C@]21N[C@@H](CCC(N)=O)[C@H]2C(=O)N(c3ccc(F)cc3)C(=O)[C@H]21 | – | inconclusive: 31.6 µM [inhibitor, single point]
CCN1C(C)=C(C(=O)OC)C(c2ccccc2)N2C(=O)[C@](O)(C(=O)OC)C(c3ccccc3)C(C(C)=O)=C12 (some centres not stated) | – | inconclusive: 3.55 µM [inhibitor, partial curve]
CCOCCCn1c(C)nc2c(c1=O)c1nc3ccccc3nc1n2-c1ccc2c(c1)OCCO2 | – | inconclusive: 12.6 µM [inhibitor, partial curve, poor fit]
CCCn1cnc2cc(NCc3cccc(OC)c3O)ccc21 | – | inconclusive: 28.2 µM [inhibitor, partial curve]
COc1ccc(C2NC(C(=O)O)Cc3c2[nH]c2ccccc32)cc1CN1CCN(c2ccc(F)cc2)CC1 (configuration not stated) | – | inconclusive: 31.6 µM [inhibitor, partial curve]
Cc1ccc2nc(CSc3nnc(-c4ccco4)o3)cc(=O)n2c1 | – | inconclusive: 31.6 µM [inhibitor, single point]
Cc1cccc(-n2ncc3c(N4CCCc5ccccc54)ncnc32)c1 | – | inconclusive: 10 µM [inhibitor, partial curve]
COc1ccc(-c2nc(S(=O)(=O)c3ccccc3)c(N3CCCCC3)o2)cc1 | – | inconclusive: 35.5 µM [inhibitor, single point]
CCN(Cc1nc(-c2ccc(OC)cc2)oc1C)S(=O)(=O)c1ccc(Cl)cc1 | inactive: -3.44% | –
COc1ccc(-c2cc(-c3ccc(OC)c(OC)c3)n[nH]2)c(O)c1 | inactive: -9.43% | –
CC(C)(C)c1ccc(C(=O)Oc2ccc3c(c2)OCC3=O)cc1 | – | inconclusive: 6.31 µM [inhibitor, partial curve, poor fit]
CC(=O)Nc1ccc(Nc2nc3ccc(C)cc3n3nnnc23)cc1 | – | inconclusive: 5.62 µM [inhibitor, partial curve]
O=C(c1ccc2c(c1)OCO2)N1CCC2(CC1)Oc1ccc(Cl)cc1C(=O)C21CC(c2cccnc2)=NO1 (configuration not stated) | – | inconclusive: 20 µM [inhibitor, single point]
COc1cc(/C=N/Nc2nc3ccccc3s2)ccc1O | – | active: 5.62 µM
O=Cc1[nH]c2ccccc2c1N(C(=O)CCl)c1ccc([N+](=O)[O-])cc1 | – | active: 15.8 µM
CCOc1ccc(C(=O)N2CCN(Cc3cc(=O)n4nc(-c5cccc(OC)c5)sc4n3)CC2)cc1 | – | inconclusive: 2.51 µM [inhibitor, partial curve]
O=C(CN1C(=O)NC2(CCCCCC2)C1=O)Nc1ccc2c(c1)CCC2 | inactive: 1.42% | –

Compound | activity, negative = inhibition | Potency
CC1CCCCN1C(=O)CSc1nc2ccccc2nc1Cc1ccc(Cl)cc1 (configuration not stated) | inactive: -13.4% | –
O=C(Nc1nnc(C2CC2)s1)c1cc(S(=O)(=O)N2CCCCC2)ccc1N1CCOCC1 | inactive: 6.23% | –
Cc1ccc(S(=O)(=O)n2cnc3cc([N+](=O)[O-])ccc32)c(C)c1C | – | inconclusive: 0.794 µM [inhibitor, full curve]
CCN(CC)S(=O)(=O)c1ccc(NCC2COc3ccccc3O2)c([N+](=O)[O-])c1 (configuration not stated) | – | inconclusive: 8.91 µM [inhibitor, partial curve]
CC(=O)c1sc(NC(=O)c2cc(=O)c3ccccc3o2)nc1C | – | inconclusive: 12.6 µM [inhibitor, partial curve]
O=C(OCc1csc(Nc2ccccc2)n1)c1ccc(Cl)cc1 | – | inconclusive: 20 µM [inhibitor, partial curve, poor fit]
COc1ccc(OC)c(C(=O)CSc2nnc(-c3cccs3)o2)c1 | – | inconclusive: 11.2 µM [inhibitor, partial curve]
CCc1cccc(C)c1NC(=O)COCc1cc(-c2ccc3c(c2)OCO3)on1 | – | inconclusive: 25.1 µM [inhibitor, partial curve, poor fit]
COCCCNC(=O)c1ccc(N2CCCC2)c(NS(=O)(=O)c2ccc(C)cc2)c1 | – | inconclusive: 28.2 µM [inhibitor, partial curve]
C=CCc1ccc(OCCOc2ccc(/C=N/n3cnnc3)cc2OCC)c(OC)c1 | – | inconclusive: 12.6 µM [inhibitor, partial curve]
COCCn1c(Cc2ccccc2)nnc1SCC(=O)Nc1cc(C)on1 | inactive: -10.7% | –
O=C(CNCC1CCCCC1)Nc1cccc(S(=O)(=O)N2CCOCC2)c1 | inactive: 4.97% | –
COC(=O)c1sc(N)c(C(=O)OC)c1CSc1nnc(-c2ccccc2Cl)n1C | – | inconclusive: 15.8 µM [inhibitor, partial curve]
C[C@]12CC[C@@H]3c4ccc(O)cc4CC[C@H]3[C@@H]1CC[C@@H]2O | – | inconclusive: 2 µM [inhibitor, partial curve, poor fit] and inconclusive: 20 µM [inhibitor, partial curve, poor fit]
COC(=O)/C(C#N)=C/c1c(N2CCN(Cc3ccc4c(c3)OCO4)CC2)nc2c(C)cccn2c1=O | – | inconclusive: 14.1 µM [inhibitor, partial curve, poor fit]
COc1ccc(Cn2nnnc2C(c2cccs2)N2CCSCC2)cc1 (configuration not stated) | inactive: -7.1% | –
CCCCC1=CC2=CC(=O)C(C)(OC(=O)CC)C(=O)C2=CN1Cc1ccco1 (configuration not stated) | – | inconclusive: 12.6 µM [inhibitor, partial curve, poor fit]
O=c1c2c3c(sc2nc(NCCO)n1CCc1ccccc1)CCCCC3 | – | inconclusive: 28.2 µM [inhibitor, partial curve]
Cc1cccc(-c2noc(CNC(=O)c3ccc(C)cc3C)n2)c1 | – | inconclusive: 10 µM [inhibitor, partial curve]
Cc1ccc(-n2ncc3c(N4CCC(C)CC4)ncnc32)cc1C | inactive: -13.5% | –
CCOc1[nH]n(-c2ccccc2)c(=O)c1C=Nc1ccc(Cl)cc1 | – | inconclusive: 0.794 µM [inhibitor, partial curve]
Cc1ccc(-c2cnc(NCc3ccc(C(C)C)cc3)n2C)cc1 | – | inconclusive: 28.2 µM [inhibitor, partial curve]
CCOc1ccc(S(=O)(=O)c2cn(Cc3ccc(C)cc3)c3ccc(OC)cc3c2=O)cc1 | – | inconclusive: 20 µM [inhibitor, partial curve, poor fit]

Compound | activity, negative = inhibition | Potency
Cc1ccc(Cl)cc1N1CCN(C(=S)NCCc2ccccc2)CC1 | – | inconclusive: 14.1 µM [inhibitor, partial curve]
CCOc1ccc2cc(-c3nnc(Nc4ccccc4F)s3)c(=O)oc2c1 | – | inconclusive: 0.631 µM [inhibitor, full curve]
Cc1ccc(CNC(=O)COCc2cc(-c3ccc4c(c3)OCO4)on2)cc1 | inactive: -13.8% | –
O=C(OCc1ccco1)c1ccc(S(=O)(=O)N2CCCCC2)cc1 | – | inconclusive: 31.6 µM [inhibitor, single point]
O=C(CC1N=C2c3ccccc3N=C(SCc3ccc(Cl)cc3)N2C1=O)NC1CCCCC1 (configuration not stated) | – | inconclusive: 11.2 µM [inhibitor, partial curve]
COc1ccc(NC(=O)Nc2cccc(C)n2)c(OC)c1 | – | inconclusive: 2 µM [inhibitor, full curve]
Cc1cc(-c2cccs2)c(C#N)c(=S)[nH]1 | – | inconclusive: 28.2 µM [inhibitor, partial curve]
CN1CCc2c(sc3c2c(NCc2ccco2)nc2nnnn23)C1 | – | inconclusive: 3.55 µM [inhibitor, single point]
COc1ccc(S(=O)(=O)N(C(=O)c2ccco2)c2cc3sc(=O)oc3c3ccccc23)cc1 | – | active: 12.6 µM
Cc1cc2c(cc1S(=O)(=O)CCC(=O)Nc1ccc(OC(F)(F)F)cc1)OCC(=O)N2 | inactive: -7.52% | –
Cc1c(CCNS(=O)(=O)c2ccccc2)sc2nc(-c3ccc(Cl)cc3)nn12 | inactive: 6.44% | –
CC1CCC2(CC1)NC(=O)N(CC(=O)c1cn(CCC#N)c3ccccc13)C2=O (configuration not stated) | inactive: -2.02% | –
COC(=O)c1cc(NC(=O)c2cnc(SC)nc2-c2ccccc2)cc(C(=O)OC)c1 | inactive: -2.89% | –
CN(C)c1nc2ccccc2c(N)c1-c1ccccc1 | inactive: 2.54% | –
COc1cc(CN2CCNC(=O)C2CC(=O)NCCC2=CCCCC2)cc(OC)c1 (configuration not stated) | inactive: -17.5% | –
COc1cc(OC)cc(-c2nc3nc(C)c(CCC(=O)Nc4ccc(C)cc4)c(C)n3n2)c1 | – | inconclusive: 8.91 µM [inhibitor, full curve, poor fit]
Cc1ccc(NCc2nc3ccccc3n2CCOc2ccccc2C)cc1 | – | inconclusive: 11.2 µM [inhibitor, partial curve, poor fit]
Nc1nc(C2CCOCC2)cs1 | inactive: -8.54% | –
CC(=O)N1CCCc2cc(S(=O)(=O)NCCC3=CCCCC3)ccc21 | inactive: -4.14% | –
COc1ccc(-c2nc(CSCC(=O)NCc3ccco3)c(C)o2)cc1 | – | inconclusive: 14.1 µM [inhibitor, partial curve]
N#C/C(=C\c1ccc(OCc2ccc(C(=O)O)cc2)cc1)C(=O)N1CCOCC1 | – | inconclusive: 35.5 µM [inhibitor, single point]
